PubChem BioAssay AID1345082 (National Center for Advancing Translational Sciences (NCATS), 2018)
Values joined by “and” are separate entries in the source; they are usually repeats but may differ in a detail not shown here. Equal entries are not always repeated. Hit rate of the full screen: of about 94,000 compounds, about 4,000 (4.3%) were called active. This list was built around the results that the source calls inconclusive (neither active nor inactive); the mix of calls is not that of the screen. Calls come from the whole dose curve; as a rule, active = well fitted inhibition curve with a large enough effect; inconclusive = small, poorly fitted or top-dose-only effect; inactive = no such curve, though single readings can be large or run the other way. Potencies of inconclusive entries are doubtful fits and often do not repeat.

Test: Cytotoxic Profiling in NIH 3T3 Cell Line of Diverse Libraries Using Quantitative High-Throughput Screening; note: nearly all actives have a fitted effect of over 55% in size
Conditions: NIH 3T3 viability, CellTiter-Glo ATP luminescence, 48-72 h; activity change, negative = cytotoxicity: at 96.7 µM (top of the series); series mostly up to 96.7 µM
Outline: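 First NIH 3T3 cells are plated at 400 cells/well; next compound is pinned in; then plates incubate 48 or 72 hr at 37 °C; finally CellTiter-Glo is added and luminescence read after 10 min.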
% is set by controls: 0 for no effect and ±100 for the full control effect; potency is the fitted concentration of half-maximal effect; tags give direction and shape of the fitted curve.

Compound	Potency	activity change, negative = cytotoxicity	outcome
COc1ccc(CN2C(=O)COC[C@H]2C(=O)Nc2ccc(C(C)C)cc2)c(OC)c1	inconclusive: 44.7 µM [inhibitor, partial curve, poor fit]		
CCc1nc2c(c(-c3ccc(OC)cc3)n1)CN(C(=O)c1ccccc1)CC2	active: 14.1 µM		
O=C(NC1CCN(c2nccc(Nc3ccccc3F)n2)CC1)c1ccc(F)cc1	active: 35.5 µM		
O=C(c1n[nH]c2c1CCCC2)N1CCC(n2cc(-c3nc(-c4ccccc4)no3)nn2)CC1	inconclusive: 50.1 µM [inhibitor, partial curve, poor fit]		
CCCNC(=O)N1CCN2C(=O)c3cc(-c4ccccc4F)ccc3NC(=O)[C@@H]2C1	inconclusive: 63.1 µM [inhibitor, partial curve, poor fit]		
Cc1nc(CN2C(=O)OC3(CCN(C(=O)Cc4ccccc4)CC3)C2(C)c2ccccc2)cs1 (stereo not given)	inconclusive: 7.08 µM [inhibitor, full curve, poor fit]		
COc1ccc(-c2cc(C(=O)NCC(C)C)c3c(C4CCNC4)nn(C)c3n2)cc1 (stereo not given)	active: 20 µM		
O=C(NCc1ccccn1)c1nc(-c2cccnc2)c2ccccn12	inconclusive: 100 µM [inhibitor, single point]		
Cn1cccc1C(=O)N1CC(Oc2cccc(-c3nc(-c4ccccc4)no3)c2)C1	inconclusive: 44.7 µM [inhibitor, partial curve, poor fit]		
O=C(NC1CCCN(c2ccc3nnc(-c4ccccc4)n3n2)C1)c1ccc(Cl)cc1 (stereo not given)	inconclusive: 56.2 µM [inhibitor, partial curve, poor fit]		
Cc1ccc(CNC(=O)c2ccc3c(c2)CN(CCCc2ccc(C)o2)CCO3)cc1	inconclusive: 44.7 µM [inhibitor, partial curve, poor fit]		
OCC1(CN2CCCC2)CCN(Cc2ccccc2F)CC1	inconclusive: 63.1 µM [inhibitor, partial curve, poor fit]		
Cc1oc2c(c1C(=O)N1CCN(c3ccccc3)CC1)CN(Cc1ccc(F)cc1)CC2	inconclusive: 50.1 µM [inhibitor, partial curve, poor fit]		
Cc1nn(-c2ccccc2)c2c1C(C)N(C1CCN(C(=O)C(C)C)CC1)C2=O (stereo not given)	inconclusive: 50.1 µM [inhibitor, partial curve, poor fit]		
CS(=O)(=O)N1CC2(CCN(C3CCCCC3)CC2)Cc2ccccc21		inactive: 2.31%	
COc1cccc(-c2ncc3c(n2)OCCN(CC2CC2)C3=O)c1OC	active: 89.1 µM		
Cc1cc(CNC(=O)[C@@H]2CCC[C@@H](NC(=O)C3CCCC3)CN(C)C(=O)C2)no1			inactive [at 138 µM]
Cc1cc(-c2cn(C)c(=O)n3cc(COc4ccccc4)nc23)ccn1	inconclusive: 44.7 µM [inhibitor, partial curve, poor fit]		
CCN1c2cc(C(=O)Nc3ccc(Cl)c(Cl)c3)ccc2C(=O)N2CCCCC21 (stereo not given)	inconclusive: 11.2 µM [inhibitor, full curve, poor fit]		
COc1ncc(CN2CC[C@@H]3OCC(=O)N(c4ccccc4)[C@H]3CC2)cn1	inconclusive: 79.4 µM [inhibitor, partial curve]		
O=C(Cn1ccn2nc3c(c2c1=O)CCCC3)Nc1ccc(C(F)(F)F)cc1		inactive: -17.5%	
COc1cccc(CCC(=O)N2CCCCC2c2nc(-c3ccncc3)n[nH]2)c1 (stereo not given)	inconclusive: 39.8 µM [inhibitor, partial curve]		

Compound	Potency	activity change, negative = cytotoxicity	outcome
COc1cccc(CN2Cc3cc(NC(=O)c4ccc([N+](=O)[O-])cc4)ccc3OC(C)C2=O)c1OC (stereo not given)	inconclusive: 31.6 µM [inhibitor, partial curve]		
CC1=C[C@@H](CNC(=O)CC(C)(C)CC(=O)O)[C@H](C(C)C)C[C@H]1Cc1nc2ccccc2[nH]1			inactive
COc1ccc(-n2nc(C3CCN(C(=O)C(C)(C)C)CC3)[nH]c2=O)cc1	inconclusive: 2.51 µM [inhibitor, partial curve, poor fit]		
OCC#Cc1csc(CN2CCCC3(CCNCC3)CC2)c1	inconclusive: 89.1 µM [inhibitor, partial curve, poor fit]		
COc1ccc(CC(=O)N2CCC3(C2)C(=O)N(CCc2ccccc2)c2ccccc23)cc1 (stereo not given)	inactive and inconclusive: 50.1 µM [inhibitor, partial curve, poor fit]		
Cc1cccc(C)c1-c1nc(C(=O)NCc2ccc(F)cc2)n2ccccc12	inactive and inconclusive: 50.1 µM [inhibitor, partial curve, poor fit]		
O=C(NCC(F)(F)F)c1ccc2nnc(-c3cc(F)ccc3F)n2c1		inactive: -9.66%	
O=C(NC1C[C@H]2CC[C@@H](C1)N2C(=O)CC1CCCC1)c1ccc(F)cc1 (stereo not given in full)	inconclusive: 79.4 µM [inhibitor, partial curve, poor fit]		
CC1(COc2cccnc2)COc2ccc(C(=O)Nc3cccc(Cl)c3)cc2N1 (stereo not given)	inconclusive: 20 µM [inhibitor, full curve, poor fit]		
O=c1n(CCN2CCC(N[S+](=O)([O-])c3cccs3)C2)nc2n1CCCC2 (stereo not given)		inactive: -4.6%	
CC(C)CCN1CCOc2cc([S+](=O)([O-])Nc3cccnc3)ccc2C1	active: 28.2 µM		
Cc1ccc2nc([C@H]3CCN(Cc4cccs4)C3)[nH]c2c1	inconclusive: 112 µM [inhibitor, partial curve, poor fit]		
CO[C@H]1C(=O)N(C2CCN(C(=O)C(C)C)CC2)[C@H]1c1ccncc1		inactive: -26.2%	
COc1ccccc1-c1cccc(CN2CCC(N[S+](=O)([O-])c3cccc(C(F)(F)F)c3)CC2)c1	active: 12.6 µM		
COc1ccc(OC2CN(S(=O)(=O)c3c(C)noc3C)C2)cc1		inactive: 0.4%	
Cc1ccc(C(=O)N2CCN(C3CCN(C)C3=O)CC2)cc1C (stereo not given)		inactive: -10.3%	
O=C(NCc1ccccc1Cl)c1ccc2oc(-c3cccnc3)nc2c1	inconclusive: 50.1 µM [inhibitor, partial curve, poor fit]		
CCOC(=O)C1CCCN(C(=O)c2cc(-c3ccc(F)cc3)c3nncn3n2)C1 (stereo not given)	inconclusive: 56.2 µM [inhibitor, partial curve, poor fit]		
COc1ccc(CN(C)Cc2ccncc2C)c(OCC(O)CN2CCCC2)c1 (stereo not given)	inconclusive: 89.1 µM [inhibitor, single point]		
COCc1cc(=O)n(CC(=O)Nc2cccc(Cl)c2)c(N2CCOCC2)n1		inactive: -15.8%	
COc1ccc(C(=O)N2CCC(Cc3nc(-c4ccc(F)cc4)no3)CC2)c(C)c1	inconclusive: 14.1 µM [inhibitor, partial curve, poor fit]		
CN1CC(=O)N(C2CCC2)Cc2c(NCC(C)(C)C)ncnc21	inconclusive: 89.1 µM [inhibitor, partial curve, poor fit]		

Compound	Potency	activity change, negative = cytotoxicity	outcome
COc1cc(Nc2ncncc2-c2nc(-c3ccccc3)no2)cc(OC)c1OC		inactive: -22.8%	
O=C(C1CCCN1c1nccc(Nc2ccccc2F)n1)N1CCOCC1 (stereo not given)		inactive: -13.8%	
Cc1ncccc1-c1nc2cc(C(=O)NCCCc3ccccc3)ccc2o1	active: 50.1 µM		
O=C(CCC1CC1)N1CCC(c2cc(Cc3ccccc3)[nH]n2)CC1	inconclusive: 50.1 µM [inhibitor, partial curve, poor fit]		
O=C1c2cnc(-c3ccccc3)nc2OCCN1c1ccccc1	inconclusive: 56.2 µM [inhibitor, partial curve, poor fit]		
CC(C)C(=O)N1Cc2ccccc2CC2(CCCCN2CC2CCNC2)C1 (stereo not given)	inconclusive: 50.1 µM [inhibitor, partial curve, poor fit]		
Cc1ccc(C(=O)N2CCCC2C(=O)N2CCC(N3Cc4ccccc4C3=O)CC2)cc1 (stereo not given)		inactive: -28.8%	
Cc1cccc(-c2cccc(CN)c2)c1	inconclusive: 112 µM [inhibitor, single point]		
CCNC(=O)N1CCCC(Cc2noc(-c3ccccc3)n2)C1 (stereo not given)		inactive: -21.6%	
O=C(NCc1ccc(F)cc1F)c1cc2n(n1)CC(c1ccc3c(c1)OCO3)OC2 (stereo not given)	inconclusive: 50.1 µM [inhibitor, single point]		
COc1ccc(CN2CCc3oc(C)c(C(=O)N4CCN(C(C)=O)CC4)c3C2)cc1		inactive: -9.27%	
CN1c2cc(C(=O)Nc3cc(F)cc(F)c3)ccc2C(=O)N2CCCCCC21 (stereo not given)	inconclusive: 35.5 µM [inhibitor, partial curve, poor fit]		
Cc1cc(C)cc(-c2ccc(CN3CCCC3C(=O)NCc3cccs3)cc2)c1 (stereo not given)	inconclusive: 44.7 µM [inhibitor, partial curve, poor fit]		
CSCCNC(=O)C1CCCN(c2nccc(Nc3ccccc3F)n2)C1 (stereo not given)	active: 25.1 µM		
CCc1ccc(C(=O)N2C[C@@H](CO)[C@H](c3ccccn3)C2)cc1		inactive: -14%	
Cc1nn2c(c1-c1ccccc1C(C)C)N(Cc1ccc(F)cc1)CCC2	active: 28.2 µM		
CC(C)c1noc(C2CCCN(S(C)(=O)=O)CCC(=O)NCC2)n1 (stereo not given)			inactive
Cc1ccc(C(=O)NC2CCN(c3cc(-c4ccccc4)[nH]n3)CC2)c(C)c1	inconclusive: 50.1 µM [inhibitor, partial curve, poor fit]		
Cc1ccc([S+](=O)([O-])N2CCCC2C(=O)N2CCC(N3CCOCC3=O)CC2)cc1 (stereo not given)		inactive: 4.18%	
O=C1COCC2(CN(Cc3cc(F)ccc3F)C2)CN1Cc1ccccc1		inactive: -26.9% [at 138 µM]	
O=C(NCCc1ccccc1F)c1nc2cccnc2n(CCc2ccccc2)c1=O	inconclusive: 50.1 µM [inhibitor, partial curve, poor fit]		
